# In PubChem BioAssay AID489043 (National Center for Advancing Translational Sciences (NCATS), 2010):
# This list was built around the results that the source calls inconclusive (neither active nor inactive); the mix of calls is not that of the screen. A potency beside an inconclusive call is a rough fit, not a confirmed value. Calls of active or inactive are those of the source. Calls follow the shape of the dose curve; as a rule, active = well fitted activation curve with a large enough effect; inconclusive = small, poorly fitted or top-dose-only effect; inactive = flat fitted curve, though single readings scatter.
# Target: Relaxin receptor 2 (Homo sapiens) (UniProt Q8WXD0)
# UniProt Q8WXD0, sequence (Q8WXD0 whole entry, looked up): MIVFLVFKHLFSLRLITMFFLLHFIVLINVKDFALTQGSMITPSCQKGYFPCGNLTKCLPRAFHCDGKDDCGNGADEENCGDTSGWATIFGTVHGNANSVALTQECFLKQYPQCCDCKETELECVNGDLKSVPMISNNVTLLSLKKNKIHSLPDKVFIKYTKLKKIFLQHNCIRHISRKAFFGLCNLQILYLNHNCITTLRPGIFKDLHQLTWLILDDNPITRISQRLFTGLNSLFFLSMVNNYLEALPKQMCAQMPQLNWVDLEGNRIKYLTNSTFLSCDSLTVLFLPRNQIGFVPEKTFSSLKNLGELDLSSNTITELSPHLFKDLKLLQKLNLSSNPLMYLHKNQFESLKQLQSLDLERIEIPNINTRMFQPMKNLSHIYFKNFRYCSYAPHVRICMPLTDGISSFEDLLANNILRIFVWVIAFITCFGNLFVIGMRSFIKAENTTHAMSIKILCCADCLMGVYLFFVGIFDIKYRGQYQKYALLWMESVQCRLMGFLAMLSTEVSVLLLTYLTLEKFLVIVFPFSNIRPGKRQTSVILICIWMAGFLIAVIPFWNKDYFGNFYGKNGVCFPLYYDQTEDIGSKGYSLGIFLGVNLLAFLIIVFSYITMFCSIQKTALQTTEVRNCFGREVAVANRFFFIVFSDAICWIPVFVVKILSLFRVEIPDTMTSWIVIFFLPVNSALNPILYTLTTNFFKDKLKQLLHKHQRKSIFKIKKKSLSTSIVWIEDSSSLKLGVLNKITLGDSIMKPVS
# Assay: qHTS Assay for Agonists of the Relaxin Receptor RXFP1: RXFP2 Hit Validation; also: nearly all actives have a fitted effect of over 65% in size
# From the text: NIH Chemical Genomics Center [NCGC] NIH Molecular Libraries Probe Production Centers Network [MLPCN] MLPCN Grant: R03 MH085705-01A1 Assay Submitter (PI): Alexander Agoulnik NCGC Assay Overview: The relaxin hormone is involved in the variety of biological functions in normal tissues and diseases. The role of relaxin is well-established in female reproduction and parturition, mammary gland and endometrial development, maintenance of myometrial quiescence during pregnancy. Relaxin signaling through its G protein-coupled receptor (GPCR) RXFP1 results in ECM remodeling through regulation of collagen deposition, cell invasiveness, proliferation and overall tissue homeostasis. […] Recombinant human relaxin (rhRlx) is currently being tested in clinical trials as a protective agent in congestive heart failure, in treating severe preeclampsia, and as an anti-fibrotic agent in systemic sclerosis. Upon relaxin binding RXFP1 activation leads to the activation of adenylate cyclase (AC) via Gs. cAMP will activate PKA, which phosphorylates many signaling proteins. Thus, detection of cAMP increase is an easy and reliable indication of relaxin receptor activation. To screen for agonists of the relaxin receptor, a HEK293T cell line stably transfected with RXFP1 was used. RXFP1 activation was assayed by changes in cAMP levels as detected with a time-resolved fluorescence energy transfer (TR-FRET) cAMP detection kit. This assay measures activation of a cell expressing RXFP2, another GPCR targeted by relaxin, to determine the selectivity of compounds for RXFP1.
# NCGC Assay Protocol Summary: This is a cell-based assay for cAMP second messenger response to screen for agonists of the RXFP2 receptor. The assay was conducted in the presence of a PDE4 inhibitor (Ro 20174). The cells were lysed and the cAMP levels were measured with a TR-FRET cAMP kit. Presence of cAMP in the cell lysate disrupts binding between the cryptate-labeled anti-cAMP and d2-labeled cAMP pair, leading to a decrease in the TR-FRET signal. Data were normalized to the controls for basal activity (buffer only) and 100% activity (29 nM porcine relaxin). The EC50 values were determined from concentration-response data modeled with the standard Hill equation 1536-well assay protocol for the HEK293 RXFP2 cAMP assay: (1) Add 3 ul HEK293 RXFP2 cell culture. 2000 cells/well in DMEM/F12, 10% FBS, 1x Pen/Strep (dispensed offline with MultiDrop Combi). (2) Incubate 16-24 hr at 37C, 5% CO2. (3) Add 1 ul 400uM Ro20174 in DPBS, 0.05% BSA, 0.005% Tween 20. (3) Add 23 nl compounds in DMSO solution. Final concentration was 0.5 - 58 uM. (4) Incubate 30 min at 37C, 5% CO2. (5) Add 1 ul cAMP-d2 in lysis buffer (HTRF cAMP HiRange kit, CisBio). (6) Add 1 ul anti-cAMP antibody-cryptate in lysis buffer (HTRF cAMP HiRange kit, CisBio). (7) Incubate 30 min at room temperature. […] Keywords: relaxin, RXFP1, RXFP2, G-protein coupled receptor, cAMP, agonist, high throughput screening, MLSMR, MLSCN, NIH Roadmap, qHTS and NCGC
# Potency is read from the fitted curve at half-maximal effect; tags tell the direction and shape of the fitted curve.
row,Structure (SMILES),Potency
1,Cn1c(O)c(N=Nc2cccc(S(=O)(=O)N3CCOCC3)c2)c(=O)n(C)c1=O,"inconclusive: 17.3 µM [activator, partial curve]"
2,O=c1[nH]c(O)c(N=Nc2ccc([N+](=O)[O-])cc2)c(=O)[nH]1,"inconclusive: 19.4 µM [activator, partial curve]"
3,O=C(O)c1sc2cc(Cl)ccc2c1Cl,inactive
4,O=C1OCc2cc(N=Nc3c(O)[nH]c(=O)[nH]c3=O)ccc21,"inconclusive: 19.4 µM [activator, partial curve]"
5,Cc1ccc(-c2nn3c(C)nnc3c3ccccc23)cc1S(=O)(=O)NCCO,"inconclusive: 24.5 µM [activator, partial curve]"
6,CCNC(=O)[C@H]1O[C@@H](n2cnc3c(N)ncnc32)[C@H](O)[C@@H]1O,active: 0.974 µM
